# Measurements published in article PMC6212790.
# Some of the results follow. At the low end of the ranking the order means little.
# Biological target: T1, GST-Rok (full length) (UniProt O34857)
# T1 sequence: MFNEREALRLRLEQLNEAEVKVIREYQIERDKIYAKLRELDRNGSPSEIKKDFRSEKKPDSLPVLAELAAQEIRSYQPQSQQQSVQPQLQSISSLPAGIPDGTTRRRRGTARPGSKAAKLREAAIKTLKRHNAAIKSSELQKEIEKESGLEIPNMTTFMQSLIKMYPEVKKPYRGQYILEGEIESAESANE
# Experiment: protein binding microarray;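 note: rank score from −0.5 (least bound) to 0.5 (best bound)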
# Settings: Rok is a gene silencer of Bacillus subtilis; high values mean tight binding; most listed sequences are background and not binding sites; double strand, one strand shown
row,Sequence,binding signal [E-score]
1,ACAAGCGT,-0.0296
2,TCGCGCAA,0.168
3,AGCCTATC,0.0553
4,GACTAGCC,-0.0957
5,CATGGGGA,-0.184
6,GCGCAGCA,-0.293
7,CGCTTAAG,-0.147
8,AGTCAATA,0.322
9,GTGCCCCA,-0.172
10,GGCTTGAA,-0.22
11,GGCGAGCC,-0.411
12,ATAAACAT,0.203
13,ACTTTAGA,0.00104
14,ATAGAATG,0.181
15,AGAGCAGC,-0.246
16,CCGTGTCC,-0.312
17,ACCAAAAA,0.211
18,ACCTAATC,0.204
19,ATACATTG,0.317
20,ATGTGTTC,0.0223
21,AGAATCCT,0.0705
22,GCCACGAA,-0.185
23,CAAGACAG,-0.115
24,CGGTTGAA,-0.0837
25,AAACAGGA,0.00183

row,Sequence,binding signal [E-score]
1,CCTCTGGC,-0.279
2,CGTAACAG,0.0596
3,GGTAAGCA,0.00929
4,ACTCGAGT,-0.00899
5,TGCGCAAA,-0.0078
6,TCTTATCA,0.125
7,AGGTTACT,0.0828
8,AAGCACGG,-0.125
9,CAGACATA,0.133
10,AAAGAGAG,-0.138
11,CTTCTATA,0.233
12,TAACGAAA,0.32
13,GGCCTGTA,-0.0873
14,CTTACCCA,-0.0105
15,AGCTCTGG,-0.175
16,CGGCCCTC,-0.441
17,ATGGGGCC,-0.279
18,AGTTGACA,0.182
19,GCGCTATA,0.216
20,GTTGAAAC,0.0651
21,TGAGTCCA,-0.185
22,AGAGCGCC,-0.254
23,ATTGGCAC,0.122
24,TATACTGA,0.284
25,ACGTGAGA,-0.0203

row,Sequence,binding signal [E-score]
1,ATGTTGGC,0.0169
2,ATACTTGA,0.0977
3,AAACGACG,-0.0634
4,AAACCCGC,-0.243
5,CTCTACGA,0.0532
6,CGTGTCGC,0.00557
7,CAGTATCA,0.0946
8,GCATGCCA,-0.231
9,CAATAAAC,0.0772
10,GTGACTTA,0.0519
11,AATCAGGC,0.101
12,CAATGGTC,-0.0595
13,GGACTTCA,-0.0795
14,TGAATGAA,-0.0392
15,CATAGTAG,0.0836
16,ACATCCCT,-0.108
17,ACCGTAAG,0.0116
18,GGCGATAC,-0.174
19,ATGAAGAG,-0.22
20,AAGGGGTC,-0.333
21,ATCCCGAC,-0.197
22,CTAGGGGA,-0.363
23,GATGGCTA,-0.00939
24,GCCCCTCA,-0.171
25,AGGAATAG,-0.0854

row,Sequence,binding signal [E-score]
1,CGAAACCG,-0.151
2,AAGTAAGT,0.282
3,GTGGACGA,-0.14
4,AACCGGAT,0.00817
5,AAGGACTG,-0.0394
6,ATCCGGTG,0.0336
7,GTGTCCGA,-0.116
8,ACGATCGT,-0.142
9,ACCCTATC,0.169
10,GACTCATC,0.0637
11,CATTACGC,0.0594
12,CGTGAGCA,-0.0392
13,CGTAGGAA,0.116
14,ACTGACGA,0.026
15,AGAGAACA,0.0695
16,GTTCGTTA,0.162
17,CGCATGCC,-0.0802
18,CTCTCAGA,0.0161
19,ACAACAAG,0.0195
20,TAAAGCGA,-0.189
21,CGGCTACA,-0.112
22,CCAGCTAC,0.0325
23,CATCTACA,0.177
24,GTTTCACA,-0.13
25,ATGTGCTA,0.222

row,Sequence,binding signal [E-score]
1,CGGAACAG,-0.176
2,AGATAATC,0.18
3,AACATCGT,0.115
4,CTAACAGC,-0.153
5,GCTAAATA,0.271
6,GGCTAGAA,-0.0986
7,CGTCCTCA,-0.206
8,ACTAAGAT,0.25
9,GCCATAAA,-0.0698
10,GGACATTA,-0.0494
11,GTCAGATA,0.124
12,GAATGTAC,0.303
13,CGATTGGC,-0.14
14,ATGCATAC,0.165
15,ATGCTGAG,-0.243
16,TCTTAGCA,0.0484
17,TATGACCA,0.0643
18,CCTACGAC,-0.0435
19,GCCGTGAC,-0.176
20,GATCATTA,0.355
21,ATGAAAGC,-0.0433
22,CAGTTGCA,0.008
23,AATGTGCA,0.152
24,GGTCCGAA,-0.0301
25,GGTCATGA,0.0617

row,Sequence,binding signal [E-score]
1,ACTCCGCC,-0.291
2,CGAGGTGA,-0.1
3,CGATACTC,-0.195
4,AAACCTTT,0.052
5,CCTACTTA,0.228
6,GCAAAAAA,0.0117
7,CCGCCATA,-0.0715
8,ACGGCTCC,-0.24
9,CAGACCGG,-0.107
10,CCTTGTTC,-0.113
11,GACTTCAC,-0.0883
12,ATTATAGG,0.285
13,GTGCATGA,-0.127
14,ATCTTACC,0.246
15,AAAGGTAG,0.254
16,CAGTCGCC,-0.316
17,CCACAATC,-0.0329
18,ATATGTCG,0.154
19,AACTCATA,-0.0624
20,ACCATAGT,0.207
21,CTTCGGCC,-0.159
22,CGTTGGTA,0.176
23,ACATCTGG,-0.0681
24,GCTCTGAC,-0.242
25,GCGTCTGA,-0.183

row,Sequence,binding signal [E-score]
1,TGGATGAA,-0.0888
2,AAAGGGGC,-0.415
3,CTGATTAC,0.136
4,GCGCGCGC,0.0925
5,CTCAAAGA,-0.0835
6,CAATGTCA,-0.0614
7,CCAGGATA,-0.000931
8,AGGCCCCC,-0.446
9,CGGCAAGA,0.114
10,CGCTCGAC,-0.331
11,AAGGTCGG,-0.267
12,CGAACGCC,-0.357
13,CAGGGACA,-0.26
14,GACGACAA,0.0643
15,GATTCGGC,-0.277
16,AACGATGC,0.0279
17,CTCTTGTC,-0.13
18,GCATACCC,0.0368
19,GTTGGGTA,0.179
20,ACATAACG,0.157
21,GAGCCGCA,-0.313
22,GAGTCATC,-0.207
